# In patent publication US20220112236A1 (NAVIGO PROTEINS, published 2022):
# B1: cs50 (designed binder)
# chain: IDAKFDEAQQAAFYEILHLPNLTEDQRNAFIQSLRDDPSVSLSLLAEAKKLNDAQAPP
# notes: also called Affilin-194928
# Legend:
# Natalizumab (IgG4) = assay: SPR, Biacore 3000, CM5 chip, 25 C, Langmuir 1:1 model
# Panitumab (IgG2) = assay: as above
# Sequence of Natalizumab (IgG4) (VH, as listed by the source, chain 1 of 2): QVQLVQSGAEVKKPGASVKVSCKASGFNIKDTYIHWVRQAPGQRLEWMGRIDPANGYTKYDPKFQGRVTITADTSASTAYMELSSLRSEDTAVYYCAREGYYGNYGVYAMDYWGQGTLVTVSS
# Sequence of Natalizumab (IgG4) (VL, as listed by the source, chain 2 of 2): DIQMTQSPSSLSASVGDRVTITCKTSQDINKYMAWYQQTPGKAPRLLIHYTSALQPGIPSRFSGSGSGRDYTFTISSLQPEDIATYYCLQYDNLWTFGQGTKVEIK
binder,measurement,setting,value
B1,Kd,Natalizumab (IgG4),2.6 nM
same,Kd,Panitumab (IgG2),25.1 nM
